Measurements from PubChem BioAssay AID1347071 (National Center for Advancing Translational Sciences (NCATS), 2019).
About 260 (0.063%) of roughly 410,000 compounds were called active. The inconclusive results got no clear call from the source; some entries with a clear call stand among them for comparison. Calls come from the whole dose curve; as a rule, active = well fitted activation curve with a large enough effect; inconclusive = small, poorly fitted or top-dose-only effect; inactive = no such curve, though single readings can be large or run the other way. Potencies of inconclusive entries are left out as doubtful fits.

experiment: qHTS for compounds that reverse cellular toxicity of Amyloid beta (A-beta) peptide in yeast: Primary Screen; details: yeast expressing A-beta42, growth rescue, OD600, 48 h; growth rescue: at 46.1 µM (top of the series) unless noted; note: nearly all actives have a fitted effect of over 55% in size
From the text: The A-beta peptide is produced by the processing of the amyloid precursor protein (APP) by two proteases, beta and gamma secretases. […] A-beta42 is regarded as the most amyloidogenic form due to its hydrophobicity; however, precisely how A-beta42 induces neurotoxicity is unclear. To understand further this biology and its potential therapeutic implications for human neurodegenerative disease, a quantitative high-throughput screen for compounds that reverse the cellular toxicity of the A-beta peptide was developed. A yeast based screen was used because it recapitulates the salient feature of protein mis-folding disorder accurately. This cell-based phenotypic screen provides a significant, unbiased advantage by letting the compounds and models inform us which proteins or pathways are most relevant. The ideal chemical candidates would therefore have activity in both our primary yeast and secondary neuronal toxicity assays, as well as in mouse models. They will be valuable tools for dissecting diverse protein homeostasis pathologies and could potentially become the focus for future pre-clinical development. For this luminescence assay, inhibition of A-beta rescues the toxic effect in the yeast cell, resulting in increase of signals and the desired phenotype of "Activator". This screen is run against the Molecular Libraries Small Molecule Repository (MLSMR) and the NCGC Sytravon Library Collection.
NIH Chemical Genomics Center [NCGC]
NIH Molecular Libraries Probe Centers Network [MLPCN]
Assay Submitter (PI): Susan Lindquist, Whitehead Institute, Massachusetts Institute of Technology
[1] Vassar R,et al (1999). Beta-secretase cleavage of Alzheimer's amyloid precursor protein by the transmembrane aspartic protease BACE. Science. 286: 735-741.
[2] Yan R, et al (1999). Membrane-anchored aspartyl protease with Alzheimer's disease beta-secretase activity. Nature. 402: 533-536.
Two and a half microliter / well of yeast growth medium were dispensed in a 1536 assay plate. Compounds were pinned using the Kalypsys robotic system followed by addition of 2.5 uL / well yeast solution. The assay plates were incubated at 30 C. After 48 hr, the absorbance signal at 600 nm was obtained using the PerkinElmer ViewLux plate reader to assess yeast growth. The data was normalized to the positive control of an equimolar mixture of ferric chloride (FeCl3) and clioquinol and to the negative control DMSO.
Potency is the fitted concentration of half-maximal effect; tags give direction and shape of the fitted curve.

Compound	Potency	growth rescue
Cc1ccc(NP(=O)(Nc2ccc(C)cc2)Oc2ccccc2)cc1	inconclusive [activator, single point]	
CC(C)(C)c1cc(OC(=O)Cc2ccccc2)ccc1O	inconclusive [activator, single point]	
CCN(CC)C(=O)c1ccc(NC(=O)Nc2ccccc2F)cc1		inactive: -67.2%
Cc1ccnc(-n2c(C)cc(/C=C3\C(=O)NC(=S)N(C)C3=O)c2C)c1	inconclusive [activator, full curve]	
O=C1NC(=O)C(=Cc2ccc(Oc3ccc([N+](=O)[O-])cc3)cc2)C(=O)N1		inactive: 15.3%
COc1ccc(-c2cc(-c3ccccc3)[n+](C)c(-c3ccccc3)c2)cc1		inactive: -11.1%
Cc1csc(NC(=O)C(Cl)c2ccccc2)n1 (configuration not stated) (tested in a mixture with another compound)	inconclusive [activator, single point]	
O=P(Nc1cccc(F)c1)(Oc1ccccc1F)Oc1ccccc1F	inconclusive [activator, single point]	
COc1ccc(OCC(=O)N2CCN(Cc3cccc(OC)c3OC)CC2)cc1		inactive: 0.133%
c1ccc2nc(N3CCNCC3)ccc2c1	inactive	
Nc1ccc2cc(Br)ccc2c1		inactive: -5.12%
CC/C(CC(c1ccccc1)c1c(O)c2ccccc2oc1=O)=N\NC(N)=S (configuration not stated)		inactive: 14.1%
CN(C)C(=O)Oc1ccc(C(=O)c2ccccc2)cc1		inactive: -0.241%
Nc1c(C(=O)NCCN2CCOCC2)c2nc3ccccc3nc2n1Cc1ccco1		inactive: 7.75%
CCOc1cc(C(=O)N2CCC3(CC2)OCCO3)cc(OCC)c1OCC		inactive: -6.23%
CC1(C)C(C(=O)N2CCN(c3ccc(Cl)cc3)CC2)C1(C)C		inactive: -0.206%
c1ccc2sc(NC3=NCCN3)nc2c1		inactive: -73.5%
CC(C)CC(=O)NC(Oc1ccc(Cl)cc1)C(Cl)(Cl)Cl (configuration not stated)	inconclusive [activator, partial curve, poor fit]	
CC(C)(C)N1Cc2ccccc2C1=N	inconclusive [activator, partial curve]	

Compound	Potency	growth rescue
CC(C)CNP(=S)(c1ccccc1)C(C)(C)C (configuration not stated)	inconclusive [activator, single point]	
C=CCN1CCc2cccc3c2[C@H]1Cc1ccc(O)c(O)c1-3		inactive: 2.65%
COC(=O)C1=C(c2ccc(F)cc2F)C[C@@H]2CC[C@H]1N2C(=O)NCCOc1ccccc1		inactive: -9.83%
COc1ccc(C(C)=O)cc1Cc1c(O)[nH]c(=S)[nH]c1=O		inactive: 4.37%
CN1CCc2nc3ccc(F)cc3c(C(N)=O)c2C1		inactive: 3.16%
O=C(COc1ccc(Cl)cc1)N1CCN(C/C=C/c2ccccc2)CC1	inconclusive [activator, partial curve, poor fit]	
Cc1cccc(C)c1OP(N)(=O)Oc1c(C)cccc1C	inconclusive [activator, single point]	
COc1ccc(-n2c(/C=C\c3ccccc3F)nc3ccccc3c2=O)c(OC)c1	inconclusive [activator, partial curve, poor fit]	
OC(c1cccc(Cl)c1)(c1cccc(Cl)c1)C1CN2CCC1CC2 (configuration not stated)	inconclusive [activator, single point]	
CCOC(=O)C(=CNc1ccc(C(O)(C(=O)OCC)C(F)(F)F)cc1C)C(=O)OCC (configuration not stated)	inconclusive [activator, partial curve]	
O=C(COC(=O)Cc1ccccc1)Nc1cc(S(=O)(=O)N2CCCCC2)ccc1Cl	inconclusive [activator, partial curve, poor fit]	
Cc1ccc(OP2(=O)Nc3cc(C)c(C)cc3S2)cc1 (configuration not stated)	inconclusive [activator, partial curve, poor fit]	
COC(=O)C(O)(c1cn(C)c2ccccc12)C(F)(F)F (configuration not stated)	inconclusive [activator, partial curve]	
CCCC1COC(Cn2cncn2)(c2ccc(Cl)cc2Cl)O1 (configuration not stated)		inconclusive: -79.3% [activator]
COc1cc(O)c(C(=O)O)c(-c2cc(O)c(O)cc2C)c1	inconclusive [activator, partial curve]	
CCCCn1c(O)c(C(C)=NCCCn2ccnc2)c(=O)[nH]c1=O		inactive: 3.16%
NS(=O)(=O)OC(CCc1ccccc1)C(Cl)(Cl)Cl (configuration not stated)	inconclusive [activator, single point]	
Nc1ccc(C2(c3ccc(N)cc3)c3ccccc3-c3ccccc32)cc1		inactive: 4.87%
